Measured values as given in PubChem BioAssay AID652104 (National Center for Advancing Translational Sciences (NCATS), 2013).
The campaign covered roughly 410,000 compounds. About 7,200 (1.8%) were called active. This list was built around the results that the source calls inconclusive (neither active nor inactive); the mix of calls is not that of the screen. Calls come from the whole dose curve; as a rule, active = well fitted activation curve with a large enough effect; inconclusive = small, poorly fitted or top-dose-only effect, or another doubt; inactive = no such curve, though single readings can be large or run the other way. No potency is given beside an inconclusive call; the fits are too rough.
Potency is the fitted concentration of half-maximal effect; tags give direction and shape of the fitted curve.

Experiment: qHTS of TDP-43 Inhibitors; note: nearly all actives have a fitted effect of over 50% in size; for growth rescue (activation): % of control where 0% means no effect
Settings: TDP-43 expressing yeast growth rescue, BacTiter-Glo, 24 h; growth rescue (activation): at 46.1 µM (top of the series) unless noted
In short: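 Cell-based yeast growth screen: TDP-43 expression induced in galactose, inoculum OD600=0.02 after raffinose pregrowth to mid-log. Read-out BacTiter-Glo luminescence at 24 hr, 30 deg C; inhibition of toxicity seen as signal increase.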
With `COc1ccc(C(=O)N/N=C(\c2ccccc2)c2ccccn2)cc1` the Potency was active: 22.4 µM.
In the case of `CCCOC(=O)c1ccc(NC(=O)C2CCCO2)cc1` (centres undefined), the Potency is reported as inconclusive [activator, partial curve].
In the case of `Cc1ccc(NC(=O)c2ccc([N+](=O)[O-])s2)cc1S(=O)(=O)N1CCOCC1`, the Potency is reported as “inactive”.
For `Cn1c(=O)c2c(ncn2Cc2cccc(Cl)c2)n(C)c1=O`, the Potency was inconclusive [activator, single point].
With `CCOc1cc(-c2nc(C)c(C(C)=O)n2O)ccc1OCC(=O)Nc1ccc(F)cc1` the Potency was active: 14.1 µM.
In the case of `CC(=O)Nc1cc(C(=O)NCc2ccc(F)cc2Cl)ccc1Sc1ccc(Cl)cc1`, the Potency is reported as active: 11.2 µM.
For `Cc1cc(C)c(C#N)c(N2CCN(c3ccc(F)cc3)CC2)n1`, the Potency was inconclusive [activator, single point].
For `O=C(NNC1=Nc2cccc3cccc1c23)c1ccccc1Br`, the Potency was inconclusive [activator, full curve, poor fit].
In the case of `Cc1ccc(C(=O)NCC(=O)OCC(=O)/C=C2\N(C)c3ccccc3C2(C)C)cc1C`, the Potency is reported as inconclusive [activator, single point].
In the case of `COc1ccc2nc(N3C(=O)CC(C(C)c4ccccc4)C3=O)sc2c1` (centres undefined), the Potency is reported as active: 11.2 µM.
With `CN1c2ccccc2Oc2nnc(N3CCN(Cc4ccccc4)CC3)cc21` the growth rescue (activation) was inactive: -11.2% [at 9.22 µM].
For `CCOc1ccccc1C(=O)Nc1ccc2nc3n(c(=O)c2c1)CCCCC3`, the Potency was inconclusive [activator, partial curve].
For `COc1cc(OC)cc(C(=O)Nc2c(C(=O)Nc3ccc(F)cc3)oc3ccccc23)c1`, the Potency was inconclusive [activator, partial curve, poor fit].
For `CSc1ccc(CCNC(=O)C(C)n2c(C)c3cnn(-c4ccccc4)c(=O)c3c2C)cc1` (centres undefined), the Potency was “inactive”.
With `CCOC(=O)c1cc(-c2ccccc2)n(CCCC(=O)Nc2cccc(Cl)c2C)c1C` the Potency was “inactive”.
In the case of `O=C(NCc1ccco1)c1cc(-c2ccccc2)nn1CC1CC(c2cccc([N+](=O)[O-])c2)=NO1` (centres undefined), the Potency is reported as inconclusive [activator, partial curve].
In the case of `COC(=O)C1=C(C)N(C)C(C)=C(C(=O)OC)C1c1ccc(F)c(Br)c1`, the Potency is reported as inconclusive [activator, single point].
In the case of `CCc1ccc(CNC(=O)CCN2C(=O)COc3ccccc32)cc1`, the Potency is reported as inconclusive [activator, partial curve, poor fit].
In the case of `COc1ccc(-n2nnnc2CNC(=O)c2ccc3ccccc3c2)cc1`, the Potency is reported as active: 20 µM.
With `Cc1ccc(NC(=S)N2CCCCCC2)cc1` the Potency was inconclusive [activator, partial curve].
With `CC1(C(=O)Nc2cccc3ncccc23)CCN1C(=O)Cc1ccc(-c2ccccc2)cc1` (centres undefined) the Potency was active: 25.1 µM.
For `COc1ccc(O)c(-c2cc(-c3cccc(Br)c3)n[nH]2)c1`, the Potency was inconclusive [activator, single point].
In the case of `CCOc1ccc(-n2c(C)nc3cc(C(=O)NCCCN4CCOCC4)ccc32)cc1`, the Potency is reported as “inactive”.
In the case of `Cc1oc(C2CC2)cc1C(=O)O`, the Potency is reported as inconclusive [activator, partial curve, poor fit].
With `N/C(Cc1ccc(Cl)cc1Cl)=N\OC(=O)c1cccs1` the growth rescue (activation) was inconclusive: -91.3% [activator].
With `Cc1ccc(CNC(=O)C(Cc2ccccc2)NS(=O)(=O)c2ccc3c(c2)CCC(=O)N3)cc1` (centres undefined) the Potency was inconclusive [activator, full curve, poor fit].
With `CCc1ccccc1NC(=O)COc1cccc2ccc(C)nc12` the Potency was inconclusive [activator, single point].
For `COc1ccccc1N(Cc1cc2cccc(C)c2[nH]c1=O)C(=O)c1cccc(Cl)c1`, the Potency was inconclusive [activator, partial curve, poor fit].
For `Oc1ccc(Cl)cc1Nc1nc2ccccc2n2cnnc12`, the Potency was “inactive”.
In the case of `O=C(CC(c1ccccc1)c1cc(Br)ccc1O)NCC1(c2ccccc2)CCCC1` (centres undefined), the Potency is reported as inconclusive [activator, full curve, poor fit].
For `COc1ccc(OC)c(NC(=O)c2ccc3c(c2)c(C)c(C)n3Cc2ccc(F)cc2)c1`, the Potency was “inactive”.
With `Clc1ccc(-c2cc(CSc3cccc(Cl)c3)on2)cc1` the Potency was inconclusive [activator, partial curve, poor fit].
For `O=C(NCc1cccc(Br)c1)c1cccn1-c1nnc(N2CCCCC2)s1`, the Potency was inconclusive [activator, single point].
With `Cc1csc(NC(=O)Cc2ccc(Cl)cc2)n1` the Potency was inconclusive [activator, single point].
For `COc1ccccc1N1CCN(C(=O)CNC(=O)c2cn(-c3ccccc3OC)c(=O)c3ccccc23)CC1`, the Potency was “inactive”.
With `O=C(CSCc1c(F)cccc1Cl)NCCSCc1ccco1` the Potency was inconclusive [activator, single point].
With `COc1cccc(NC(=O)c2ccc(S(=O)(=O)N3CCCCC3)cc2)c1` the Potency was inconclusive [activator, partial curve].
For `Cn1nnnc1N=N/C(=N/Nc1ccccc1)c1ccccc1`, the Potency was inconclusive [activator, partial curve].
In the case of `C[C@H]([C@@H](N)C(=O)N[C@@H](C(=O)O)[C@@H]1O[C@H](n2ccc(=O)[nH]c2=O)[C@@H](O)[C@H]1O)[C@@H](O)c1ccc(O)cn1`, the Potency is reported as active: 4.47 µM.
For `O=C(CCSc1ccc(Cl)cc1)Nc1cccnc1`, the Potency was inconclusive [activator, partial curve].
For `Cc1cc(N2CCN(C(c3ccccc3)c3ccc(Cl)cc3)CC2)n2ncnc2n1` (centres undefined), the Potency was inconclusive [activator, partial curve].
For `O=c1c2sc3ccccc3c2n(Cc2ccccc2F)c(=O)n1CCc1ccccc1`, the Potency was “inactive”.
For `FC(F)Oc1ccc(NC(=S)NC2CCCCCCC2)cc1`, the Potency was “inactive”.
With `Fc1ccccc1-n1[nH]nnc1=S` the Potency was inconclusive [activator, partial curve].
